From the supplement of paper PMC6135742
Counter-ions that a name gives are not always drawn. ± gives the standard deviation of the averaged measurements. In all, about 2,600 compounds were measured (“MBP+ mature oligodendrocyte number relative to DMSO vehicle control”: median about -0.34, highest 2% from about 13 on). The list shows a part of the results.
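Note: 10 µM single dose with 3-day oligodendrocyte differentiation.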

Each molecule was assayed on jimpy (Plp1 jimpy) mouse iPSC-derived oligodendrocyte progenitor cells (assay: MBP+ mature oligodendrocyte number relative to DMSO vehicle control (SDs above negative control mean); higher = more surviving jimpy oligodendrocytes (rescue)). Settings: 10 µM; 3 days.
CC(C)c1onc(-c2c(Cl)cccc2Cl)c1COc1ccc(/C=C/c2cccc(C(=O)O)c2)c(Cl)c1 was tested, and the “MBP+ mature oligodendrocyte number” value was 4.15.
Nc1nc(Nc2ccc(S(N)(=O)=O)cc2)nn1C(=O)c1c(F)cccc1F was tested, and the “MBP+ mature oligodendrocyte number” value was < -6.7.
For C=CCN1CCCC1CNC(=O)c1cc2nn[nH]c2cc1OC (stereo not given) [Alizapride HCl], the “MBP+ mature oligodendrocyte number” value was 7.67.
In the case of Cc1nc2c(OCc3ccccc3)cccn2c1CC#N, the “MBP+ mature oligodendrocyte number” value is reported as -0.962.
CCOC(=O)C1=C(C)NC(C)=C(C(=O)OC)C1c1cccc([N+](=O)[O-])c1 (stereo not given) [Nitrendipine] was tested, and the “MBP+ mature oligodendrocyte number” value was 4.55 ± 2.1.
N[C@H](C(=O)O)[C@H](Cc1ccccc1)C(=O)O [L-Beta-threo-benzyl-aspartate] was tested, and the “MBP+ mature oligodendrocyte number” value was 1.25.
With CN(C)c1nc(N)c(C(=O)NC(=N)N)nc1Cl [5-(N,N-Dimethyl)amiloride hydrochloride] the “MBP+ mature oligodendrocyte number” value was -0.747.
For O=C(c1ccc(OCCN2CCCCC2)cc1)c1c(-c2ccc(O)cc2)sc2cc(O)ccc12 [Raloxifene hydrochloride], the “MBP+ mature oligodendrocyte number” value was 5.72.
In the case of O=C(c1ccc(OCCN2CCCCC2)cc1)c1c(-c2ccc(O)cc2)sc2cc(O)ccc12 [Raloxifene HCl], the “MBP+ mature oligodendrocyte number” value is reported as 10.3.
For CNC(=O)c1ccc(N2C(=S)N(c3cnc(C#N)c(C(F)(F)F)c3)C(=O)C23CCC3)cc1F, the “MBP+ mature oligodendrocyte number” value was 5.74.
For CNC(=O)c1ccccc1Sc1ccc2c(/C=C/c3ccccn3)n[nH]c2c1 [Axitinib], the “MBP+ mature oligodendrocyte number” value was -5.04.
For CC(C)(NS(=O)(=O)c1ccc(Oc2ccc(F)cc2)cc1)C(=O)NO, the “MBP+ mature oligodendrocyte number” value was -0.0098.
CC(CN1c2ccccc2Sc2ccccc21)N(C)C (stereo not given) [Promethazine hydrochloride] was tested, and the “MBP+ mature oligodendrocyte number” value was -3.93.
For CNC(=O)CN1CCC(Oc2cc3c(Nc4cccc(Cl)c4F)ncnc3cc2OC)CC1 [AZD8931 (Sapitinib)], the “MBP+ mature oligodendrocyte number” value was -4.14.
In the case of CCN1CCCC1CNC(=O)c1cc(S(=O)(=O)CC)c(N)cc1OC (stereo not given) [Amisulpride], the “MBP+ mature oligodendrocyte number” value is reported as 0.0203 ± 0.13.
With Nc1nc(N)nc(-c2cc(Cl)ccc2Cl)n1 [Irsogladine] the “MBP+ mature oligodendrocyte number” value was -1.46.
In the case of CCCS(=O)(=O)Nc1ccc(F)c(C(=O)c2c[nH]c3ncc(Cl)cc23)c1F, the “MBP+ mature oligodendrocyte number” value is reported as 0.545.
With O=C(Nc1cccc(Cl)c1)Nc1ncc(CCNc2ncnc3ccsc23)s1 [SNS-314 Mesylate] the “MBP+ mature oligodendrocyte number” value was 3.08.
For Nc1ncnc2c1c(-c1cccc(OCc3ccccc3)c1)cn2C1CC(CN2CCCC2)C1 (stereo not given), the “MBP+ mature oligodendrocyte number” value was < -6.7.
CCc1c(C(=O)NCCc2ccc(N3CCCCC3)cc2)[nH]c2ccc(Cl)cc12 was tested, and the “MBP+ mature oligodendrocyte number” value was 8.45.
With Nc1cccc(-c2cc3c(Oc4cccc(O)c4)ncnc3[nH]2)c1 the “MBP+ mature oligodendrocyte number” value was -3.71.
In the case of CC(C)[C@H]1CC[C@H](C(=O)N[C@H](Cc2ccccc2)C(=O)O)CC1 [Nateglinide], the “MBP+ mature oligodendrocyte number” value is reported as -0.78.
In the case of COc1c(O)cc2c(c1O)[C@@H]1O[C@H](CO)[C@@H](O)[C@H](O)[C@H]1OC2=O [Bergenin], the “MBP+ mature oligodendrocyte number” value is reported as -0.444.
With COc1ccc(-n2nc(C(N)=O)c3c2C(=O)N(c2ccc(N4CCCCC4=O)cc2)CC3)cc1 [Apixaban] the “MBP+ mature oligodendrocyte number” value was -0.467.
With COc1ccc(C(C)=O)c(O)c1 [Paeonol] the “MBP+ mature oligodendrocyte number” value was -1.62.
In the case of CC(C)c1nc(CN(C)C(=O)N[C@H](C(=O)N[C@@H](Cc2ccccc2)C[C@H](O)[C@H](Cc2ccccc2)NC(=O)OCc2cncs2)C(C)C)cs1 [Ritonavir], the “MBP+ mature oligodendrocyte number” value is reported as -3.99.
CCCOC(=O)c1c(-c2ccccc2)nc(CC)c(C(=O)SCC)c1CCC was tested, and the “MBP+ mature oligodendrocyte number” value was -1.93.
With COc1ccccc1OCCNCC(O)COc1cccc2[nH]c3ccccc3c12 (stereo not given) [Carvedilol] the “MBP+ mature oligodendrocyte number” value was -4.38 ± 0.7.
CC1CCc2cc(F)cc3c(=O)c(C(=O)O)cn1c23 (stereo not given) [Flumequine] was tested, and the “MBP+ mature oligodendrocyte number” value was 1.53.
With COc1cc(N2CCC(N3CCN(C)CC3)CC2)ccc1Nc1ncc(Cl)c(Nc2ccccc2S(=O)(=O)C(C)C)n1 the “MBP+ mature oligodendrocyte number” value was < -6.7.
C[C@@H](O)[C@H]1C(=O)N2C(C(=O)OCOC(=O)C(C)(C)C)=C(SC3CN(C4=NCCS4)C3)[C@H](C)[C@H]12 [Tebipenem Pivoxil] was tested, and the “MBP+ mature oligodendrocyte number” value was -4.36.
For CCCCOc1ccc(OCCCN2CCOCC2)cc1 [Pramoxine HCl], the “MBP+ mature oligodendrocyte number” value was 14.3.
For COC(=O)Nc1nc2cc(C(=O)c3ccc(F)cc3)ccc2[nH]1 [Flubendazole], the “MBP+ mature oligodendrocyte number” value was -4.88.
In the case of CC(=O)O[C@H]1Cc2ccccc2N(C(N)=O)c2ccccc21, the “MBP+ mature oligodendrocyte number” value is reported as -0.711.
O=C(O[C@@H]1C[C@@H]2C[C@H]3C[C@H](C1)N2CC3=O)c1c[nH]c2ccccc12 [Dolasetron mesylate hydrate] was tested, and the “MBP+ mature oligodendrocyte number” value was -0.0327.
For CC(C)(C)NC(=O)[C@@H]1CN(Cc2cccnc2)CCN1C[C@@H](O)C[C@@H](Cc1ccccc1)C(=O)N[C@H]1c2ccccc2C[C@H]1O [Indinavir sulfate salt hydrate], the “MBP+ mature oligodendrocyte number” value was -1.26.
In the case of COc1ccc2cc1Oc1ccc(cc1)C[C@H]1c3c(cc4c(c3Oc3cc5c(cc3OC)CCN(C)[C@@H]5C2)OCO4)CCN1C [Cepharanthine], the “MBP+ mature oligodendrocyte number” value is reported as < -6.35.
In the case of NC1=N[C@@]2(c3cc(NC(=O)c4ccc(F)cn4)ccc3F)COC[C@H]2CS1, the “MBP+ mature oligodendrocyte number” value is reported as 0.563.
With COc1ccc(COc2cc3oc(=O)c4cc(C(C)O)ccc4c3cc2OC)cc1 (stereo not given) [Palomid 529 (P529)] the “MBP+ mature oligodendrocyte number” value was 0.843.
With CCCCCCCC/C=C\CCCCCCCC(=O)O [Oleic Acid] the “MBP+ mature oligodendrocyte number” value was -0.559.
In the case of CC(C)(C)NCC(O)c1ccc(O)c(CO)c1 (stereo not given) [Albuterol hemisulfate], the “MBP+ mature oligodendrocyte number” value is reported as -0.426.
With CO[C@H]1C[C@@H]2CC[C@@H](C)[C@@](O)(O2)C(=O)C(=O)N2CCCC[C@H]2C(=O)O[C@H]([C@H](C)C[C@@H]2CC[C@@H](OP(C)(C)=O)[C@H](OC)C2)CC(=O)[C@H](C)/C=C(\C)[C@@H](O)[C@@H](OC)C(=O)[C@H](C)C[C@H](C)/C=C/C=C/C=C/1C [Ridaforolimus (Deforolimus, MK-8669)] the “MBP+ mature oligodendrocyte number” value was -3.82.
For Cc1c(OCC(F)(F)F)ccnc1C[S+]([O-])c1nc2ccccc2[nH]1 (stereo not given) [Lansoprazole], the “MBP+ mature oligodendrocyte number” value was 7.5 ± 4.5.
CC[C@@H]1C(=O)N(C)c2cnc(Nc3ccc(C(=O)NC4CCN(C)CC4)cc3OC)nc2N1C1CCCC1 was tested, and the “MBP+ mature oligodendrocyte number” value was < -6.7.
For Cn1c(=O)c2c(ncn2C)n(C)c1=O [Caffeine], the “MBP+ mature oligodendrocyte number” value was -1.45.
With COc1ccccc1CNCCCCCCNCCCCCCCCNCCCCCCNCc1ccccc1OC [Methoctramine tetrahydrochloride] the “MBP+ mature oligodendrocyte number” value was -3.58.
With CC(C)c1noc(N2CCC(COc3ccc(-c4ccc(S(C)(=O)=O)cc4)nc3)CC2)n1 the “MBP+ mature oligodendrocyte number” value was 0.563.
With O=C(NC1CCNCC1)c1n[nH]cc1NC(=O)c1c(Cl)cccc1Cl the “MBP+ mature oligodendrocyte number” value was < -5.15.
With CC[C@H](Nc1ncnc2[nH]cnc12)c1nc2cccc(F)c2c(=O)n1-c1ccccc1 [CAL-101 (Idelalisib, GS-1101)] the “MBP+ mature oligodendrocyte number” value was -4.53.
With COc1cc2c[n+](C)c3c4cc5c(cc4ccc3c2cc1OC)OCO5 [Nitidine chloride] the “MBP+ mature oligodendrocyte number” value was < -4.47.
In the case of CN(C)[C@@H](CCOc1cccc2ccccc12)c1ccccc1 [Dapoxetine HCl], the “MBP+ mature oligodendrocyte number” value is reported as < -5.15.
For CN(C)CCCC1(c2ccc(F)cc2)OCc2cc(C#N)ccc21 (stereo not given) [Citalopram hydrobromide], the “MBP+ mature oligodendrocyte number” value was -0.59.
In the case of Nn1nnc2ccccc21 [1-Aminobenzotriazole], the “MBP+ mature oligodendrocyte number” value is reported as -0.197.
With CCCC(CCC)C(=O)O [Divalproex Sodium] the “MBP+ mature oligodendrocyte number” value was 2.05.
For CCCC(CCC)C(=O)O [Valproic acid sodium salt (Sodium valproate)], the “MBP+ mature oligodendrocyte number” value was 0.72.
For CCCC(CCC)C(=O)O [Valproic acid sodium], the “MBP+ mature oligodendrocyte number” value was 0.147.
CN1Cc2sccc2C(c2ccc(O)c(O)c2)C1 (stereo not given) was tested, and the “MBP+ mature oligodendrocyte number” value was -0.511.
For COc1ccccc1N1CCN(CCN2C(=O)CC3(CCCC3)CC2=O)CC1, the “MBP+ mature oligodendrocyte number” value was -0.213.
COc1ccccc1N1CCN(CCN2C(=O)CC3(CCCC3)CC2=O)CC1 [BMY 7378 dihydrochloride] was tested, and the “MBP+ mature oligodendrocyte number” value was -1.22.
For OCC(O)CN1CCN(c2ccccc2)CC1 (stereo not given) [Dropropizine], the “MBP+ mature oligodendrocyte number” value was 3.19.
In the case of C[C@H](O)C(=O)C1=Nc2c(nc(N)[nH]c2=O)NC1 [Sepiapterin], the “MBP+ mature oligodendrocyte number” value is reported as -1.5.
In the case of CN(CCCOc1ccc(Cc2ccccc2)cc1)CCC(=O)O, the “MBP+ mature oligodendrocyte number” value is reported as 0.896.
For CC(C)(C)c1cc(/C=C(\C#N)C(N)=S)cc(C(C)(C)C)c1O [Tyrphostin AG 879], the “MBP+ mature oligodendrocyte number” value was 2.54 ± 2.2.
With CCC(=O)NCC[C@@H]1CCc2ccc3c(c21)CCO3 [Ramelteon] the “MBP+ mature oligodendrocyte number” value was 1.77.
For COC1=CC(=O)C[C@@H](C)[C@]12Oc1c(Cl)c(OC)cc(OC)c1C2=O [Griseofulvin], the “MBP+ mature oligodendrocyte number” value was -1.37.
O=S(=O)(NCCNC/C=C/c1ccc(Br)cc1)c1cccc2cnccc12 was tested, and the “MBP+ mature oligodendrocyte number” value was -3.89.
With O[C@@H](COc1cccc2ncccc12)CN1CCN(C2c3ccccc3[C@@H]3[C@H](c4ccccc42)C3(F)F)CC1 (stereo not given in full) the “MBP+ mature oligodendrocyte number” value was < -6.7.
With COc1ccc(-c2coc3cc(O)cc(O)c3c2=O)cc1 [Biochanin A] the “MBP+ mature oligodendrocyte number” value was 1.74.
CNCc1ccc(-c2[nH]c3cc(F)cc4c3c2CCNC4=O)cc1 was tested, and the “MBP+ mature oligodendrocyte number” value was 3.34.
In the case of CCCNC(C)C(=O)Nc1c(C)csc1C(=O)OC (stereo not given) [Articaine HCl], the “MBP+ mature oligodendrocyte number” value is reported as 12.
CCNC(=O)c1noc(-c2cc(C(C)C)c(O)cc2O)c1-c1ccc(CN2CCOCC2)cc1 was tested, and the “MBP+ mature oligodendrocyte number” value was < -6.7.
CC(=O)C1=C(O)C=C2Oc3c(C(C)=O)c(O)c(C)c(O)c3C2(C)C1=O (single isomer, unassigned; (+)) [(+)-Usniacin] was tested, and the “MBP+ mature oligodendrocyte number” value was 2.86.
In the case of Cc1cnc(-c2cnc(NCCNc3ccc(C#N)cn3)nc2-c2ccc(Cl)cc2Cl)[nH]1, the “MBP+ mature oligodendrocyte number” value is reported as -5.53.
In the case of O=C(O)c1cc2cccc([N+](=O)[O-])c2[nH]1, the “MBP+ mature oligodendrocyte number” value is reported as 1.41.
With COc1ccc(CCc2nc3cc(-c4c(C)noc4C)ccc3n2C[C@H](C)N2CCOCC2)cc1Cl the “MBP+ mature oligodendrocyte number” value was < -6.35.
Cc1c(NC(=O)OC[C@@H]2COCCN2)cn2ncnc(Nc3ccc4c(cnn4Cc4cccc(F)c4)c3)c12 was tested, and the “MBP+ mature oligodendrocyte number” value was -6.
With Cc1ccc2nc(NCCN)c3ncc(C)n3c2c1 the “MBP+ mature oligodendrocyte number” value was -4.64.
N[C@@H](Cc1c[nH]cn1)C(=O)O [L-Histidine hydrochloride] was tested, and the “MBP+ mature oligodendrocyte number” value was 0.189.
With CC(C[N+](C)(C)C)OC(N)=O (stereo not given) [Bethanechol chloride] the “MBP+ mature oligodendrocyte number” value was 0.404 ± 1.
With COc1ccc(C[C@H](NC(=O)[C@H](C)NC(=O)CN2CCOCC2)C(=O)N[C@@H](Cc2ccccc2)C(=O)[C@@]2(C)CO2)cc1 the “MBP+ mature oligodendrocyte number” value was < -6.35.
